# Laboratory results as given in article PMC6919601, “Identification of Plasmodium dipeptidyl aminopeptidase allosteric inhibitors by high throughput screening” (PLoS ONE, 2019).
# Hit rate of the full screen: of about 110,000 compounds, about 230 (0.21%) showed an effect of 50% or more. The list shows a part of the results.
# Molecular target: DPAP1 (Plasmodium falciparum, UniProt Q8IIJ9)
# Test: primary screen, percent inhibition; read by cleavage of a fluorogenic dipeptide substrate; higher = more effect of the substance
# Parameters: species or system P. falciparum D10 trophozoite lysates; single well
# Procedure: HTS was performed in black 384-well plates. The first and last two columns of each plate contained our negative (DMSO) and positive (10 μM JCP410) controls, and the 20 central columns the test compounds at 10 μM. Compounds were first diluted 50-fold into assay buffer (50 mM sodium acetate, 5 mM MgCl2, 10 mM β-mercaptoethanol, and 0.1% CHAPS, pH 5.5) from a 10 mM DMSO stock plates. One microliter of this 200 μM intermediate stock plate was dispensed into the assay plate. […] After 30 min, the reaction was quenched with 20 μL of 0.5 M acetic acid, and the fluorescent intensity measured at 523 nm (λex = 492 nm) using an Analyst HT multimode plate reader (Molecular Devices).
# 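Further: 30 min substrate incubation versus DMSO and 10 µM JCP410 controls.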
# Chain of DPAP1 (Q8IIJ9 whole entry, looked up): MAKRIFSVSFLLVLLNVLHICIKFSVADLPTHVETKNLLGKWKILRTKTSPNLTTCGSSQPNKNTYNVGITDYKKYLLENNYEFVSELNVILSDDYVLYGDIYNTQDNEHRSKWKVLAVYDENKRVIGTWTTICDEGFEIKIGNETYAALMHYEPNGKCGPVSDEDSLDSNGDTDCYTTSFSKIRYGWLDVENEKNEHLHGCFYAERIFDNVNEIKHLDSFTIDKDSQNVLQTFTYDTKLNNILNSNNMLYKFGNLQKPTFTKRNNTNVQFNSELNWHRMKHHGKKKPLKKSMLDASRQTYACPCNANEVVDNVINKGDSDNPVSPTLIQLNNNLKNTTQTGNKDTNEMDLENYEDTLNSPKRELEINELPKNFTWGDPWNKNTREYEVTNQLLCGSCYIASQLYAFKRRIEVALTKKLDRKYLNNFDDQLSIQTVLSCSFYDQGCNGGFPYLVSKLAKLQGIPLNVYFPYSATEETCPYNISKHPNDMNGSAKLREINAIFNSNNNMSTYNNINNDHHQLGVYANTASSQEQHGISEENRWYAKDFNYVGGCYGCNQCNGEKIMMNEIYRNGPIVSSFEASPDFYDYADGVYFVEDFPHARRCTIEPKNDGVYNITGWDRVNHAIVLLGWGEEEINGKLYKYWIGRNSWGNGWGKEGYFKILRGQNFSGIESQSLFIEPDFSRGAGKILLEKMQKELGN
row,SMILES,% Inhibition @ 10 uM [%]
1,Cc1ccc(-n2ncc(C(=O)N3CCC(C(N)=O)CC3)c2NC(=O)c2ccco2)cc1C,0.245
2,COc1cc(C2(O)CCCCC2C)cc(OC)c1OC (stereo not shown),2.13
3,CCOc1ccc(C2CC(c3cccs3)Nc3ncnn32)cc1OC (stereo not shown),-3.37
4,O=C1CCCN1CCCNc1nc2ccccc2n2nnnc12,4.33
5,CCCN1C(=O)c2cc(C(=O)O)ccc2C1O (stereo not shown),-1.03
6,CC1CCN(CCNC(=O)c2nn(C)c3c2CS(=O)(=O)c2ccccc2-3)CC1,-0.495
7,COc1ccc(CCN2CC34C=CC(O3)C(C(=O)NCc3ccccc3Cl)C4C2=O)cc1OC (stereo not shown),1.07
8,CCOC(=O)C1=C(CNCCc2ccc(Cl)cc2)NC(=O)NC1c1ccccc1 (stereo not shown),-6.91
9,CCN(CC)CC#CC(O)(c1ccccc1)C1CCCCC1 (stereo not shown),-0.902
10,COc1ccc(C(=N)NOC(=O)c2cc(-c3ccccc3)nc3ccccc23)cc1,-1.33
11,O=C(Nc1nc2ccc(F)cc2s1)c1ccco1,-2.63
12,Cc1ccc(C(=O)N/C(=C\c2cc(-c3ccccc3)nn2-c2ccccc2)C(=O)N2CCOCC2)cc1,-5.28
13,COc1ccccc1C1C(C#N)=C(N)OC2=C1C(=O)c1ccccc1C2=O (stereo not shown),-2.21
14,CCOC(=O)C1=C(C)N=C2SCC(=O)N2C1c1ccc(OC)cc1 (stereo not shown),5.98
15,O=C(COc1ccccc1)NC1(C(=O)NC2CCCC2)CCCCC1,0.361
16,O=C(NCCO)/C(=C\c1ccsc1)NC(=O)c1ccccc1,-0.305
17,N#Cc1cc(NC(=O)c2ccc(F)cc2)c(O)n2c1nc1ccccc12,9.38
18,O=C(Nc1nc2ccccc2[nH]1)C1CC1c1ccccc1 (stereo not shown),-9.94
19,CCCC(O)(CCN1CCCCCC1)c1ccc(Br)cc1 (stereo not shown),2.8
20,COc1cc(NC(=O)c2ccc(OC(F)F)c(OC)c2)c(OC)cc1Cl,2.08
21,COCCCNC(=O)CCc1c(C)nc2c(-c3ccc(F)cc3)c(C)nn2c1C,6.1
22,O=C(CNS(=O)(=O)c1cccc2nsnc12)NCc1ccc(Cl)cc1,-2.9

row,SMILES,% Inhibition @ 10 uM [%]
1,CCOc1nc(NCc2ccccc2)nc(NCc2cccnc2)n1,-1.25
2,NC(=O)c1ccc[n+]([O-])c1,0.66
3,CC(=O)N(C)c1ccc(Br)c2c1C(=O)c1ccccc1C2=O,-5.62
4,Cc1ccccc1C1CC(=O)NC(SCC(=O)Nc2cccc(F)c2)=C1C#N (stereo not shown),-2.8
5,CC(=O)N/C(=C/c1ccc2c(c1)OCO2)C(=O)O,-2.21
6,CC(=O)c1ccc(NC(=O)c2ccc(OC(C)C)cc2)cc1,0.316
7,Cc1ccc(-c2ccc(=O)n(CC(=O)NCc3ccccc3Cl)n2)cc1,-2.99
8,CSc1n[nH]c(NCc2cccs2)n1,1.74
9,CCN(CC)CCN(CC(=O)N(C1CCCCC1)C1CCCCC1)C(=O)c1ccco1,8.55
10,O=C(c1cc(-c2ccc(F)cc2)n[nH]1)N1CCN(C(=O)c2ccco2)CC1,-4.97
11,CC(=O)c1cnc2c(c(C)nn2-c2ccccc2)c1O,0.708
12,CCOc1ccc(C2c3c(oc4ccc(F)cc4c3=O)C(=O)N2Cc2ccco2)cc1OC (stereo not shown),1.74
13,CCN1CCN(c2csc3ccccc3c2=O)CC1,1.97
14,O=C(Nc1ccc(F)cc1F)c1sc2ccccc2c1Cl,-1.5
15,COc1cc2c(cc1OC)C(c1cccc(OC)c1OC)NCC2 (stereo not shown),1.66
16,Cc1ccc(C(=O)Nc2sc3c(c2C(=O)O)CCCC3)cc1,2.17
17,CCCc1ccc(C#N)c(SC(C)(C)C(=O)O)n1,-0.403
18,Cc1cc(OCC(=O)NC(C)C)cc(C)c1Br,-8.4
19,COc1cc(C2C(C#N)=C(N)OC3=C2C(=O)CCC3)ccc1OCC(=O)Nc1ccc(C)cc1C (stereo not shown),0.851
20,COc1ccc(N2C(=O)C3C4C=CC(C3C2=O)N(C)C4=O)cc1 (stereo not shown),-3.66
21,Cc1cccc(N2C(=O)C(Cl)=C(Nc3cccc(O)c3)C2=O)c1C,-2.88
22,O=C(Cc1ccc(Cl)cc1)N(Cc1ccccc1)c1ccccn1,-7

row,SMILES,% Inhibition @ 10 uM [%]
1,Cc1ccccc1CCNC(=O)C1CCN(c2nnc(C)c3c(C)n(-c4ccccc4)nc23)CC1,8.46
2,Cc1cc(NC(=O)CCC2CCCCC2)no1,2.01
3,Cc1cccc(OCCCN2CCCC2)c1C,-2.42
4,CC(C)(C)c1ccc(C2c3c(-c4ccccc4O)n[nH]c3C(=O)N2CC2CCCO2)cc1 (stereo not shown),-1.35
5,CNC(=O)C(C)NC(=O)C1O[C@@H]2OC(C)(C)O[C@@H]2[C@H]2OC(C)(C)O[C@@H]12 (stereo partly shown),-1.25
6,C=CCn1c(SCC(=O)NCCO)nc2sc3c(c2c1=O)CCCC3,1.02
7,NC(=S)N/N=C/c1sc(O)nc1-[n+]1ccc(-c2ccncc2)cc1,-1.47
8,CN(C(=O)Cn1nnc2sc(-c3ccccc3)cc2c1=O)C1CCCCC1,0.758
9,COc1cccc(C2C3=C(O)CCCC3=NC(C)=C2C(=O)OC2CCCC2)c1 (stereo not shown),0.736
10,COCCNC(=O)CN(c1ccc(C)cc1)S(=O)(=O)c1ccc(F)cc1,-2.28
11,CCOc1cc(C(=O)N(Cc2nc(-c3cccc(C)c3)no2)C(C)C)cc(OCC)c1OCC,-1.54
12,O=C(NCc1ccco1)c1cc2n(n1)C(C(F)(F)F)CC(c1ccc(Br)cc1)N2 (stereo not shown),-2.06
13,CCc1ccc(N2CC(C(=O)NCc3ccc4c(c3)OCO4)CC2=O)cc1 (stereo not shown),0.431
14,CCc1ccccc1NC(=O)CN1CC(c2ccccc2)CC1=O (stereo not shown),1.34
15,Cc1cccc(C(=O)N2CCC(C)CC2)c1,5.24
16,O=C(CCN1C(=O)c2cccc3cccc(c23)C1=O)N1CCN(c2ccc(F)cc2)CC1,-7.58
17,Cc1cccnc1NC(=O)c1c(O)nc2c(c1O)CCCC2,-3.93
18,CCCOc1ccc(CNC(=O)Cn2cc3c(n2)-c2c(oc(C(=O)N4CCCC4)c2C)CC3)cc1,6.45
19,CC1(C)CC(=O)C2=C(C1)OC(N)=C(C#N)C21C(=O)Nc2cc(Cl)ccc21 (stereo not shown),-3.26
20,CCn1c(SCc2nc(O)c3ccccc3n2)nnc1-c1cccnc1,-5.62
